# Laboratory results as given in article PMC12820563.
# The other results are listed elsewhere or left out. The list includes weakly bound sequences.
# Target: T1, MBP-FoxP3dN (UniProt Q99JB6)
# T1 sequence: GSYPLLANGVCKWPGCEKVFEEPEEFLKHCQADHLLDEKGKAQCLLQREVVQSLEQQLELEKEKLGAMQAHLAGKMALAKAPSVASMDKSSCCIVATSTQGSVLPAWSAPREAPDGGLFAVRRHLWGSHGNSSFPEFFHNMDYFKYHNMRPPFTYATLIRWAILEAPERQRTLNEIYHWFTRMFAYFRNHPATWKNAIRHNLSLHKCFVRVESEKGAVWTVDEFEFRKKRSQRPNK
# Assay: PD-seq (MBP pull-down with sequencing)
# Details: 20 mM Tris-HCl pH 7.5, 100 mM NaCl, 1.5 mM MgCl2, 0.4 uM protein, 0.1 uM dsDNA library, 30 min, room temperature, amylose pull-down; high values mean tight binding; double strand, one strand shown
row,Sequence,binding signal (RPM ratio (pull-down/input))
1,GATGATTGTTCTCCCAGCTGATGAATTGGCAATGTCGAGTAAACAAATTTTCCTAATCTTTCTGTTCAAGCGCCATCTAC,0.887
2,GATGATTGTTCTCCCAGCTGATGAATTCGGGCGCTCGAGTAAACAAATTTTCCTAATCTTTCTGTTCAAGCGCCATCTAC,0.333
3,GATGATTGTTCTCCCAGCTGATGAATTGCATCCATCGAGTAAACAAATTTTCCTAATCTTTCTGTTCAAGCGCCATCTAC,5.42
4,GATGATTGTTCTCCCAGCTGATGAATTCGCCATCTCGAGTAAACAAATTTTCCTAATCTTTCTGTTCAAGCGCCATCTAC,1.34
5,GATGATTGTTCTCCCAGCTGATGAATTTAGCAATTCGAGTAAACAAATTTTCCTAATCTTTCTGTTCAAGCGCCATCTAC,4.28
6,GATGATTGTTCTCCCAGCTGATGAATTCCGCCTGTCGAGTAAACAAATTTTCCTAATCTTTCTGTTCAAGCGCCATCTAC,5.28
7,GATGATTGTTCTCCCAGCTGATGAATTCCAGTTGTCGAGTAAACAAATTTTCCTAATCTTTCTGTTCAAGCGCCATCTAC,0.891
8,GATGATTGTTCTCCCAGCTGATGAATTCCGCACGTCGAGTAAACAAATTTTCCTAATCTTTCTGTTCAAGCGCCATCTAC,1.91
9,GATGATTGTTCTCCCAGCTGATGAATTAATGGGATCGAGTAAACAAATTTTCCTAATCTTTCTGTTCAAGCGCCATCTAC,0.333
10,GATGATTGTTCTCCCAGCTGATGAATTCCGGAAGTCGAGTAAACAAATTTTCCTAATCTTTCTGTTCAAGCGCCATCTAC,0.15
11,GATGATTGTTCTCCCAGCTGATGAATTACAGCCCTCGAGTAAACAAATTTTCCTAATCTTTCTGTTCAAGCGCCATCTAC,0.516
12,GATGATTGTTCTCCCAGCTGATGAATTGAACGCGTCGAGTAAACAAATTTTCCTAATCTTTCTGTTCAAGCGCCATCTAC,0.533
13,GATGATTGTTCTCCCAGCTGATGAATTGCCGATGTCGAGTAAACAAATTTTCCTAATCTTTCTGTTCAAGCGCCATCTAC,0.606
14,GATGATTGTTCTCCCAGCTGATGAATTGGCGTAATCGAGTAAACAAATTTTCCTAATCTTTCTGTTCAAGCGCCATCTAC,0.732
15,GATGATTGTTCTCCCAGCTGATGAATTCTTTGCGTCGAGTAAACAAATTTTCCTAATCTTTCTGTTCAAGCGCCATCTAC,0.489
16,GATGATTGTTCTCCCAGCTGATGAATTGGGACTCTCGAGTAAACAAATTTTCCTAATCTTTCTGTTCAAGCGCCATCTAC,1.66
17,GATGATTGTTCTCCCAGCTGATGAATTCAAAGTCTCGAGTAAACAAATTTTCCTAATCTTTCTGTTCAAGCGCCATCTAC,0.253
18,GATGATTGTTCTCCCAGCTGATGAATTAATCAGTTCGAGTAAACAAATTTTCCTAATCTTTCTGTTCAAGCGCCATCTAC,0.427
19,GATGATTGTTCTCCCAGCTGATGAATTTGGCGTTTCGAGTAAACAAATTTTCCTAATCTTTCTGTTCAAGCGCCATCTAC,3.37
20,GATGATTGTTCTCCCAGCTGATGAATTGGGAGGCTCGAGTAAACAAATTTTCCTAATCTTTCTGTTCAAGCGCCATCTAC,0.412
21,GATGATTGTTCTCCCAGCTGATGAATTTGCTCAATCGAGTAAACAAATTTTCCTAATCTTTCTGTTCAAGCGCCATCTAC,0.348

row,Sequence,binding signal (RPM ratio (pull-down/input))
1,GATGATTGTTCTCCCAGCTGATGAATTTTCACCGTCGAGTAAACAAATTTTCCTAATCTTTCTGTTCAAGCGCCATCTAC,0.222
2,GATGATTGTTCTCCCAGCTGATGAATTTCAGAGATCGAGTAAACAAATTTTCCTAATCTTTCTGTTCAAGCGCCATCTAC,0.218
3,GATGATTGTTCTCCCAGCTGATGAATTAACACCGTCGAGTAAACAAATTTTCCTAATCTTTCTGTTCAAGCGCCATCTAC,0.355
4,GATGATTGTTCTCCCAGCTGATGAATTCTGCAGATCGAGTAAACAAATTTTCCTAATCTTTCTGTTCAAGCGCCATCTAC,0.423
5,GATGATTGTTCTCCCAGCTGATGAATTTCAGAACTCGAGTAAACAAATTTTCCTAATCTTTCTGTTCAAGCGCCATCTAC,0.168
6,GATGATTGTTCTCCCAGCTGATGAATTCATTGTGTCGAGTAAACAAATTTTCCTAATCTTTCTGTTCAAGCGCCATCTAC,3.5
7,GATGATTGTTCTCCCAGCTGATGAATTATTTGACTCGAGTAAACAAATTTTCCTAATCTTTCTGTTCAAGCGCCATCTAC,0.481
8,GATGATTGTTCTCCCAGCTGATGAATTGTTCTGATCGAGTAAACAAATTTTCCTAATCTTTCTGTTCAAGCGCCATCTAC,0.32
9,GATGATTGTTCTCCCAGCTGATGAATTCAGTCACTCGAGTAAACAAATTTTCCTAATCTTTCTGTTCAAGCGCCATCTAC,0.774
10,GATGATTGTTCTCCCAGCTGATGAATTCCAGGATTCGAGTAAACAAATTTTCCTAATCTTTCTGTTCAAGCGCCATCTAC,0.215
11,GATGATTGTTCTCCCAGCTGATGAATTGGATAATTCGAGTAAACAAATTTTCCTAATCTTTCTGTTCAAGCGCCATCTAC,0.314
12,GATGATTGTTCTCCCAGCTGATGAATTACCCACATCGAGTAAACAAATTTTCCTAATCTTTCTGTTCAAGCGCCATCTAC,0.409
13,GATGATTGTTCTCCCAGCTGATGAATTCCGACCGTCGAGTAAACAAATTTTCCTAATCTTTCTGTTCAAGCGCCATCTAC,0.43
14,GATGATTGTTCTCCCAGCTGATGAATTTAATTTCTCGAGTAAACAAATTTTCCTAATCTTTCTGTTCAAGCGCCATCTAC,1.98
15,GATGATTGTTCTCCCAGCTGATGAATTCTCTCCTTCGAGTAAACAAATTTTCCTAATCTTTCTGTTCAAGCGCCATCTAC,0.179
16,GATGATTGTTCTCCCAGCTGATGAATTGAGTAATTCGAGTAAACAAATTTTCCTAATCTTTCTGTTCAAGCGCCATCTAC,0.863
17,GATGATTGTTCTCCCAGCTGATGAATTATAGAGATCGAGTAAACAAATTTTCCTAATCTTTCTGTTCAAGCGCCATCTAC,0.289
18,GATGATTGTTCTCCCAGCTGATGAATTAGTACTATCGAGTAAACAAATTTTCCTAATCTTTCTGTTCAAGCGCCATCTAC,0.906
19,GATGATTGTTCTCCCAGCTGATGAATTCGCCCTCTCGAGTAAACAAATTTTCCTAATCTTTCTGTTCAAGCGCCATCTAC,0.394
20,GATGATTGTTCTCCCAGCTGATGAATTACGTACATCGAGTAAACAAATTTTCCTAATCTTTCTGTTCAAGCGCCATCTAC,0.647
21,GATGATTGTTCTCCCAGCTGATGAATTCGTTTACTCGAGTAAACAAATTTTCCTAATCTTTCTGTTCAAGCGCCATCTAC,4.99

row,Sequence,binding signal (RPM ratio (pull-down/input))
1,GATGATTGTTCTCCCAGCTGATGAATTGCGGGCGTCGAGTAAACAAATTTTCCTAATCTTTCTGTTCAAGCGCCATCTAC,0.866
2,GATGATTGTTCTCCCAGCTGATGAATTACATCGATCGAGTAAACAAATTTTCCTAATCTTTCTGTTCAAGCGCCATCTAC,0.436
3,GATGATTGTTCTCCCAGCTGATGAATTACAAACGTCGAGTAAACAAATTTTCCTAATCTTTCTGTTCAAGCGCCATCTAC,0.586
4,GATGATTGTTCTCCCAGCTGATGAATTTTCTAGGTCGAGTAAACAAATTTTCCTAATCTTTCTGTTCAAGCGCCATCTAC,0.18
5,GATGATTGTTCTCCCAGCTGATGAATTCTTTTGCTCGAGTAAACAAATTTTCCTAATCTTTCTGTTCAAGCGCCATCTAC,0.373
6,GATGATTGTTCTCCCAGCTGATGAATTTCGGTCCTCGAGTAAACAAATTTTCCTAATCTTTCTGTTCAAGCGCCATCTAC,0.404
7,GATGATTGTTCTCCCAGCTGATGAATTAAATCATTCGAGTAAACAAATTTTCCTAATCTTTCTGTTCAAGCGCCATCTAC,0.567
8,GATGATTGTTCTCCCAGCTGATGAATTCGCCCTATCGAGTAAACAAATTTTCCTAATCTTTCTGTTCAAGCGCCATCTAC,0.347
9,GATGATTGTTCTCCCAGCTGATGAATTAAGTGAGTCGAGTAAACAAATTTTCCTAATCTTTCTGTTCAAGCGCCATCTAC,0.771
10,GATGATTGTTCTCCCAGCTGATGAATTCCGAAAATCGAGTAAACAAATTTTCCTAATCTTTCTGTTCAAGCGCCATCTAC,0.153
11,GATGATTGTTCTCCCAGCTGATGAATTCTAAGTTTCGAGTAAACAAATTTTCCTAATCTTTCTGTTCAAGCGCCATCTAC,0.357
12,GATGATTGTTCTCCCAGCTGATGAATTGTGCGCTTCGAGTAAACAAATTTTCCTAATCTTTCTGTTCAAGCGCCATCTAC,2.13
13,GATGATTGTTCTCCCAGCTGATGAATTGCTAGGATCGAGTAAACAAATTTTCCTAATCTTTCTGTTCAAGCGCCATCTAC,0.411
14,GATGATTGTTCTCCCAGCTGATGAATTATGAAGTTCGAGTAAACAAATTTTCCTAATCTTTCTGTTCAAGCGCCATCTAC,0.371
15,GATGATTGTTCTCCCAGCTGATGAATTCTGCAGTTCGAGTAAACAAATTTTCCTAATCTTTCTGTTCAAGCGCCATCTAC,1.58
16,GATGATTGTTCTCCCAGCTGATGAATTGTCCCATTCGAGTAAACAAATTTTCCTAATCTTTCTGTTCAAGCGCCATCTAC,0.448
17,GATGATTGTTCTCCCAGCTGATGAATTAGCATGATCGAGTAAACAAATTTTCCTAATCTTTCTGTTCAAGCGCCATCTAC,0.785
18,GATGATTGTTCTCCCAGCTGATGAATTAGGTACCTCGAGTAAACAAATTTTCCTAATCTTTCTGTTCAAGCGCCATCTAC,0.545
19,GATGATTGTTCTCCCAGCTGATGAATTCTATCTTTCGAGTAAACAAATTTTCCTAATCTTTCTGTTCAAGCGCCATCTAC,0.478
20,GATGATTGTTCTCCCAGCTGATGAATTTAAACCGTCGAGTAAACAAATTTTCCTAATCTTTCTGTTCAAGCGCCATCTAC,0.261
21,GATGATTGTTCTCCCAGCTGATGAATTCCTGATATCGAGTAAACAAATTTTCCTAATCTTTCTGTTCAAGCGCCATCTAC,0.354
